Test results: PMC4336329 (PLoS ONE, 2015)
About 14,000 (4.5%) of roughly 310,000 compounds showed an effect of 50% or more. Effects have a minus sign here. The list shows a part of the results.

target: human ether-à-go-go-related gene (hERG) potassium channel (human, UniProt Q12809); test: primary screen, population patch clamp on CHO cells stably expressing hERG
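Also: peak tail current of the secondary pulse compared with the same well before compound.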

Sequence of human ether-à-go-go-related gene (hERG) potassium channel (Q12809 whole entry, looked up): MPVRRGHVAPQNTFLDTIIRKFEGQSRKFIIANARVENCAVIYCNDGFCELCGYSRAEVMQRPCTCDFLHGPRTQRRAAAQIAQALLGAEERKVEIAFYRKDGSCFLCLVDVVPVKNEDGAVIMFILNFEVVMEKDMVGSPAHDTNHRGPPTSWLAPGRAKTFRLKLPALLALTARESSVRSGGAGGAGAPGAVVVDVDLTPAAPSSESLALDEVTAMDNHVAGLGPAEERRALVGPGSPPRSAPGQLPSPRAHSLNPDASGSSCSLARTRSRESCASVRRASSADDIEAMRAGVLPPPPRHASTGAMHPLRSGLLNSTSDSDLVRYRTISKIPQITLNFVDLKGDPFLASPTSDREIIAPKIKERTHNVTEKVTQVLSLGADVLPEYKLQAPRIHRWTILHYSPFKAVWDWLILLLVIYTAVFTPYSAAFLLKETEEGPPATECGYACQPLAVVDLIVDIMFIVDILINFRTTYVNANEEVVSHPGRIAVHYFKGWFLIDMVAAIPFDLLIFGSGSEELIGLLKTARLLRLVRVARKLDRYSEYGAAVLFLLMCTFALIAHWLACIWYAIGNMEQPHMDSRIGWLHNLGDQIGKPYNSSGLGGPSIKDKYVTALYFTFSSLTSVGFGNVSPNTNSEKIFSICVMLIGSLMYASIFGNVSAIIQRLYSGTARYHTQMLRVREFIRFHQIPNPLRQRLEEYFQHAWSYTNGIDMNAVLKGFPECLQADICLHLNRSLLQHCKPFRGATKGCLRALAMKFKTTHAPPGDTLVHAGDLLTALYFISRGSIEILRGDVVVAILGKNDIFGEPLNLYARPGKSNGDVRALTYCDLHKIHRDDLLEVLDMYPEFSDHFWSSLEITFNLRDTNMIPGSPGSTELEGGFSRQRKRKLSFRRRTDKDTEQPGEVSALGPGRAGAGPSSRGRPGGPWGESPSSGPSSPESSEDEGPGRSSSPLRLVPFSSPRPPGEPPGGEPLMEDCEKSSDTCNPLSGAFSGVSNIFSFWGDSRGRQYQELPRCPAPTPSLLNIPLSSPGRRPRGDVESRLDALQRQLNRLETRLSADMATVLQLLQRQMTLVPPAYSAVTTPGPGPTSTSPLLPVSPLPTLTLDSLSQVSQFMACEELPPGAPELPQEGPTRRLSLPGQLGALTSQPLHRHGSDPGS

SMILES	hERG current change (%, negative = inhibition) at 10uM [%]
CCc1ccc(N/C(SC)=C(/C#N)C(N)=O)cc1	-4.57
COC1CCCN(C(=O)c2ccc(OC3CCN(CCc4ccccc4)CC3)cc2)C1 (stereo not shown)	-11.6
Cn1c(CNC(=O)c2ccccc2)nnc1SCC(=O)N1CCN(c2ccccc2)CC1	1.77
Cc1ccc(N2CC(C(=O)OCc3ccccc3F)CC2=O)cc1 (stereo not shown)	-7.25
Cc1c(Cl)cccc1NC(=S)NCCc1ccc(S(N)(=O)=O)cc1	-3.88
N#C/C(=C\c1c[nH]c2ccccc12)C(=O)NCC1CCCO1 (stereo not shown)	10.4
COc1cc(OC)cc(C(=O)Nc2nnc(SCC(=O)NCc3ccco3)s2)c1	-0.238
COc1ccc(NC(=O)c2ccc(-n3cccn3)nc2)c(OC)c1	8.65
COc1ccc(/C=C(/NC(=O)c2ccccc2)C(=O)N/N=C/c2ccncc2)c(OC)c1	1.53
O=c1[nH]c(NC2CCCCC2)c([N+](=O)[O-])c(=O)[nH]1	14.7
COc1ccc(OCCSc2ncc(CO)n2C)cc1	12.4
O=C1c2ccccc2C(=O)N1CCSc1ccccc1	-14.5
CCOC(=O)N1CCc2c(sc3nc(SC(C)C)n(N)c(=O)c23)C1	-20.9
CC(OC(=O)CCCc1c[nH]c2ccccc12)C(=O)Nc1ccc(S(N)(=O)=O)cc1 (stereo not shown)	-19.8
OCC1(CC2CCCCO2)CCN(Cc2ccccc2-c2ccco2)CC1 (stereo not shown)	-27.4
COc1ccccc1NS(=O)(=O)c1cccc(C(=O)NNC(=O)c2ccc(=O)[nH]c2)c1	1.85
CC(C)(C)c1ccc(C(=O)NCC(=O)N2CCCC2)cc1	11.4
CC(C)Nc1nc(-c2ccccc2)nc(-n2ccnc2)n1	-0.0673
Cc1nc(SCCOc2ccccc2)[nH]c(=O)c1Cc1ccccc1	10
Cc1ccc(NS(=O)(=O)c2ccc(-c3csc(C)n3)s2)c(C)c1	16
COc1cccc(-n2c(O)c(C=NCc3ccc4c(c3)OCO4)c(=O)[nH]c2=O)c1	2.39
CC(=C/c1ccccc1)/C=N/n1c(C)n[nH]c1=S	14.1

SMILES	hERG current change (%, negative = inhibition) at 10uM [%]
CCOc1cc(-c2cn(S(=O)(=O)c3cccc4nsnc34)nc2N)cc(OCC)c1OCC	0.719
N/C(=N\OC(=O)c1ccc(Br)o1)c1cccnc1	11.7
CN(C(=O)COC(=O)CN1C(=O)c2cccc([N+](=O)[O-])c2C1=O)c1ccccc1	3.54
CCC(c1nnnn1CS(=O)(=O)c1ccc(C)cc1)N1CCN(c2nc3ccccc3s2)CC1 (stereo not shown)	-4.38
Clc1ccc(-c2nnc(-c3ccccc3)o2)c(Cl)c1	-7.78
CN(Cc1ccccc1)C(=O)CN1CCCC1=O	0.755
Cc1noc(C(=O)Nc2ccc(C#N)cc2)c1Cl	15
COc1ccc(-c2csc(N3CCC(c4ccccc4)C3)n2)cc1 (stereo not shown)	12.8
CC(C)c1ccccc1NC(=S)NCCCn1ccnc1	15
COc1ccc(/C=C/C(=O)c2ccc(OC)cc2OC)cc1	-10.9
COCc1cc(=O)[nH]c(/N=C(\N)Nc2ccc(C)cc2C)n1	15.3
Clc1cccc(Cl)c1-c1nnc2cccc(Cl)n12	-8
CC(=O)c1ccccc1OCC(=O)Nc1cccc(S(=O)(=O)N2CCCC2)c1	5.47
Cc1cc(C)cc(-n2nnnc2-c2cn(C)nc2C(F)(F)F)c1	-3.11
COc1ccc2c(c1)CCCC21NC(=O)N(CC(=O)c2cc(F)ccc2F)C1=O (stereo not shown)	-7.18
O=C1[C@H]2[C@H]3[C@H](O)[C@H](O)C/C(=N\OC[C@@H](O)COCc4ccco4)[C@@H]3CC[C@H]2C(=O)N1c1ccc(F)cc1F	13.1
O=C(CSc1ccccc1)Nc1cc(S(=O)(=O)N2CCOCC2)ccc1N1CCOCC1	14.5
Cc1nc2ccccc2nc1CSc1nnc(N)s1	-4.13
CCCn1c(=O)n(C)c(=O)c2c(SCC(=O)NC34CC5CC(CC(C5)C3)C4)nc(CC(C)C)nc21	8.5
OCCC1CN(Cc2cccn2-c2ncccn2)CCN1Cc1ccc(F)cc1 (stereo not shown)	-73.7
COC(=O)c1cc(-c2ccccc2)sc1NC(=O)CN1C(=O)c2ccccc2C1=O	15.9
